Some of the results follow.

Sequences and labels used below:
T1: UNK ZnF1-3 (human, UniProt Q9C0B0 31-174)
T1 sequence: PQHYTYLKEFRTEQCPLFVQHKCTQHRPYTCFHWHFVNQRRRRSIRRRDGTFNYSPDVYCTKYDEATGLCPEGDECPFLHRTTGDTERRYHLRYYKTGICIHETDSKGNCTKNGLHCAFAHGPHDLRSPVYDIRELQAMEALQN

B1: chr7:102950833:102950834:+_ENSG00000105819_ENST00000453466|hu_hu|motif|central (ssRNA)
RNA: GGGAGUUCUACAGUCCGACGAUCACCAUAUACAGUCCCCAUAAUCCUGUAUCUGUGUAGGAAGUGUUGAAAGACUGAAAGCGGUGGCAAAGAUUGCCAUGACAAGUGAGCUGGGCCAGCUUGCUAGAUAAAUUCAUUCCUCCCCAACAGAGGAUUGAGCAUCA
B2: chr22:32879901:32879902:+_ENSG00000100225_ENST00000397426|hu_mus|hu_hu_hu_mus_False|38_48 (ssRNA)
RNA: GGGAGUUCUACAGUCCGACGAUCCUCUUCCAUACUCAUGGCAUCCUGAAUUGACUCAGCUUCAACAUUUUGACUAGGCCCUUCCAUACUGUCGUCAUUCCAAACACCAAAUGGGGUGGCCUGUCCUUGGGAUGAAUCAGUCCCCAACAGAGGAUUGAGCAUCA
B3: chr17:23961646:23961647:+_ENSMUSG00000039218_ENSMUST00000088621|mus_hu|FALSE|FALSE (ssRNA)
RNA: GGGAGUUCUACAGUCCGACGAUCGCAUUUCUCAUUUUUAUUUGACAGAAAAAGUUGCUCUUGCUGUACAGAUUUUAAAAAACCAAAAUGCCUUUAAGAAACAUGAAAAGUUGGGGGGAGGGGUUCACAACCUCAUGGGGGACACAACAGAGGAUUGAGCAUCA
B4: chr1:46159212:46159213:+_ENSG00000159596_ENST00000372025|hu_mus|hu_hu_hu_mus_True|8_38 (ssRNA)
RNA: GGGAGUUCUACAGUCCGACGAUCUCUGAUCCCUCCCAAGAAAGCUAGGAAACCGGCUCCAUAAGCCAUCUGAGUGAAAGCUAGGACGGGGAUAUAAGUUUUUGUCAUUACCAUGAGAAGUGGGGGAGCAACGAAGGGGAUUAACAACAGAGGAUUGAGCAUCA
B5: chr20:21312971:21312972:+_ENSG00000088930_ENST00000377191|hu_hu|motif|central (ssRNA)
RNA: GGGAGUUCUACAGUCCGACGAUCUCCAAACUGAUUACAAAGACCACAUGGUUUGGGCUUGUUUGGUUUGAAUUCUUCUCGGAUAAUGGUAAAGUUCGGUUCAUGUGUGGCAAGGCCAAGCAUAAUGAGAUCAGCAUCUGCUCCCAACAGAGGAUUGAGCAUCA
B6: chr19:8913615:8913616:-_ENSMUSG00000071658_ENSMUST00000096259|mus_hu|mus_mus_mus_hu_False|28_58 (ssRNA)
RNA: GGGAGUUCUACAGUCCGACGAUCAGGGUACCAAAACCUUCUGCCUGAAAUGGGUGCCCCACCCAGUAGGGAGUUGCAGCUAAAAAUAUCUGAUGCAGAAGCAGUGAAUGCAGAGAAGGAGGCCCCUGGGGAGGGCCAGGCCAGCAACAGAGGAUUGAGCAUCA
B7: chr9:100896081:100896082:-_ENSMUSG00000032527_ENSMUST00000035116|mus_mus|FALSE|FALSE (ssRNA)
RNA: GGGAGUUCUACAGUCCGACGAUCGAAAUUGAAGAAUUCACGCAGGUUACACAGAGCAUCAACAUCAUUGUCGAAAGCUCUAUGGGCCACACCUGACACAGUGGUGUGGGUCUUGGCACCACCCAGCUGCUCUUGAGUGACAUCCAACAGAGGAUUGAGCAUCA
B8: chr8:97244095:97244096:-_ENSG00000156467_ENST00000518406|hu_mus|FALSE|FALSE (ssRNA)
RNA: GGGAGUUCUACAGUCCGACGAUCGCAGGCAUGGCCUGAUGCCUCAUGGUCAGGUCUUAACGCAACACUCUGUUGCCUCAAAGUCCUCAGGAAGCCUUCUUAUGACUUCUUUCACACUUCAGUCUCCUAUGCUGUGCCAUCUCACAACAGAGGAUUGAGCAUCA
B9: chr9:95050471:95050472:-_ENSG00000196305_ENST00000443024|hu_mus|FALSE|FALSE (ssRNA)
RNA: GGGAGUUCUACAGUCCGACGAUCGUCCCACCCGAAUCUUCUGUCAACGUGAAACCCGCUCUGGUGAGCGUAUCUCGUAACGAUAUCUUUGAUUGUCCCAGCAAGUAUGUGUCCAUAGUGAGGCAGUCCAGUAGCAAAGGGAGGCAACAGAGGAUUGAGCAUCA
B10: 41527489_41527609_2659_CDS_ENSG00000100393_ENST00000263253|human|control|control (ssRNA)
RNA: GGGAGUUCUACAGUCCGACGAUCGGGAGACUGCCCAGGCUGCUGAUUCUGCUGGUUCUUUGCUUGCACCUGGGGUUGUGUCGGCAUCUGAUUUACUUGAUAGGGUAGUCCAAGAGCUGCAUAGGCUCUUUCUAUGGAGCUGGGCAACAGAGGAUUGAGCAUCA
B11: chr17:57743871:57743872:+_ENSG00000141367_ENST00000269122|hu_hu|FALSE|FALSE (ssRNA)
RNA: GGGAGUUCUACAGUCCGACGAUCCAGUAGGCCAGCCUUUUCACACAGUUGAGCAAUAUGAGCCCGGUCAUAAUGUGUGAACAUCUGAUUGCCUAGAAUAGCAUCUGCAACUUGAGGCGCAUGCAUAAGGUUCAUCUCAAGUAACAACAGAGGAUUGAGCAUCA
B12: 90616086_90621556_925_3pUTR_ENSMUSG00000019961_ENSMUST00000072239|mouse|control|control (ssRNA)
RNA: GGGAGUUCUACAGUCCGACGAUCCCUGUUGAAGAUCCACUCGUCCAUUCAGUCUCAGUUACUCCAGCUUGAGAAUAGCUCUGAUUGUGCUCAGUCCUUCUCUGCUUCAGUGUGACUGGCGUCUUGGCUCUGCCCUUUAGCGGCCAACAGAGGAUUGAGCAUCA
B13: chr5:132412388:132412389:+_ENSG00000170606_ENST00000304858|hu_mus|FALSE|FALSE (ssRNA)
RNA: GGGAGUUCUACAGUCCGACGAUCUUUAGAUUUUAUGUCUAGCUUGUAUUUCUUUCCAAAUUCUUCACAGAAGUGAUUUACCAACACCUCAUCAAAUUUUCUGCCUCCCAAUGUUGUAUCAAAAGCUGUGGCCAAAACUUUCAGCAACAGAGGAUUGAGCAUCA
B14: chr3:10015032:10015033:+_ENSMUSG00000027533_ENSMUST00000029046|mus_mus|mus_mus_mus_hu_True|18_68 (ssRNA)
RNA: GGGAGUUCUACAGUCCGACGAUCGUUUUUACCAUCACAAGUGAUGAUACAAUCUGGCUUGGCCAUUGCAGCCAUCUUUCGCAAAGCUAUUCCCACUCCUAGCUCCUUCAUGUAUUCCUCAAAGCCGUUGCUGUCCACCAGGCGCAACAGAGGAUUGAGCAUCA
B15: chr1:78482781:78482782:+_ENSG00000162616_ENST00000370763|hu_hu|FALSE|FALSE (ssRNA)
RNA: GGGAGUUCUACAGUCCGACGAUCUGUAGUGGUAGUUCAUUCUUUUUAGGGAAAUUACAUAAAGUACAUAUAGAAUAUUAUUAGUAAGUUAUAGAAGACUGUAUAACUGGAAAAUUAAUUCCAAGUAACAGCAUUUCCUCUAAACAACAGAGGAUUGAGCAUCA
B16: chr8:109707966:109707967:+_ENSMUSG00000031924_ENSMUST00000034400|mus_mus|motif|central (ssRNA)
RNA: GGGAGUUCUACAGUCCGACGAUCAAUUUACUUAAAAAGAAAAAUGGGAAAAGAUUCAUAACCUGACUGCUGUUCCCUUAACGGUAUCUACUAUGAAUUCAAAUUAUGAGAAAUCAUGUACUGUCCCCAAAGGCCAUGUCACUACAACAGAGGAUUGAGCAUCA
B17: chr5:136384420:136384421:-_ENSMUSG00000051391_ENSMUST00000055808|mus_mus|motif|central (ssRNA)
RNA: GGGAGUUCUACAGUCCGACGAUCUACGACGGCUACAUAAUGACUCACAUUCAUGAAUAUUCCAUCACUGAGGAAACUGCGGAGAAUGGUCCGUGUGCGAAAUAAUUCCUUAGCGAAACACGGAGUUGGGGGGGAAAAAAUCACCAACAGAGGAUUGAGCAUCA
B18: 79703920_79729941_136_5pUTR_ENSG00000039319_ENST00000505560|human|control|control (ssRNA)
RNA: GGGAGUUCUACAGUCCGACGAUCUAAUUCUUGUAUGCCUCUGGUCUGGAACAGAAACUCCACCAAAUAAGCCCGAGAAACCUCACAGGAAUCUCCCUACAGCCCCUGCGGAGCUUUUUGGGAACUCGACACGACGUCGCGCUGCAACAGAGGAUUGAGCAUCA
B19: chr1:60041781:60041782:+_ENSMUSG00000041040_ENSMUST00000036540|mus_hu|mus_mus_mus_hu_False|18_68 (ssRNA)
RNA: GGGAGUUCUACAGUCCGACGAUCAAGUUUACAAUAGUAAAGUAAAUGCAGUAGUGGCAAAUUUUCUUUACUUUAGUUUCACAAAAGAAAAUCUUUAUAACCCAGUCCUAGUCUUGGCAGAGAAAGCAGCUAUAAAUUCUGACUCAACAGAGGAUUGAGCAUCA
B20: chr15:66169770:66169771:+_ENSG00000103769_ENST00000567671|perfect_dup|FALSE|FALSE (ssRNA)
RNA: GGGAGUUCUACAGUCCGACGAUCGUCCCAUAUCUGUGCCUUUAUUGUUUUCCCAUCAACCUGGAUGCUUCUUGUUGCAAACUCUACUCCAAUGGUACUCUUGCUUUCCAGAUUAAACUCAUUUCGAGUAAAUCGAGACAGGAGCAACAGAGGAUUGAGCAUCA
B21: chr12:12974248:12974249:+_ENSG00000213782_ENST00000358007|hu_hu|FALSE|FALSE (ssRNA)
RNA: GGGAGUUCUACAGUCCGACGAUCCAGGGCUUCAAACUGCUCUGAGAUCUGAAAGGCCAGCUCCCGAGUCGGGGUAAGAACUAGGGCAAACAAACGCUGCGGGGUCUCCAGCAGUGCGUUUAGAAUGGGCAAAGCAAAGGCGCCCAACAGAGGAUUGAGCAUCA
B22: chr8:81716360:81716361:+_ENSMUSG00000071064_ENSMUST00000098614|mus_mus|FALSE|FALSE (ssRNA)
RNA: GGGAGUUCUACAGUCCGACGAUCCUAAGCAGGCCCCUCAUCCACGGCUGGAUGUCAGGUGGGGAGGGAAGCAGGGCCCUGCUAGGUUUGGAGAGGGAGGCUGCGAAGGUAUAAGGAGCUGAUGAUGUGGACUGUUCAGUCUCUCAACAGAGGAUUGAGCAUCA

The target in the assay is T1, UNK ZnF1-3. Kind of assay: nsRBNS (natural sequence RNA bind-n-seq); RBNS binding buffer (assumed for nsRBNS): 25 mM Tris pH 7.5, 150 mM KCl, 3 mM MgCl2, 0.01% Triton X-100, 500 ug/ml BSA, 20 U/ml SUPERase-In, 4 C; UNK is unkempt and MSI1 is Musashi-1; names of the RNAs are library labels; protein concentration not given here; high values mean tight binding.
B1 displayed a binding signal of 1.22 enrichment R. The figure for B2 is 0.844 enrichment R; for B3 it is 1.45 enrichment R. Turning to B4, the binding signal was found to be 1.4 enrichment R. The figure for B5 is 0.787 enrichment R; for B6 it is 1.88 enrichment R. Consider B7, for which the binding signal turned out to be 1.03 enrichment R. The figure for B8 is 0.541 enrichment R; for B9 it is 0.998 enrichment R. The figure for B10 is 1.22 enrichment R. Next, B11: 1.14 enrichment R; B12: 0.574 enrichment R; B13: 0.905 enrichment R. The molecule B14 showed a binding signal of 0.775 enrichment R. Next, B15: 0.864 enrichment R; B16: 1.77 enrichment R; B17: 1.31 enrichment R. The figure for B18 is 1.23 enrichment R. Molecule B19 displayed a binding signal of 0.869 enrichment R. Next, B20: 0.655 enrichment R. Next, B21: 1.68 enrichment R. Next, B22: 1.49 enrichment R.

The record behind these values is PMC12136788.
